This passage reports cytotoxicity call results from the antibiotic and cytotoxicity screens of Wong et al. (2023).

The list shows a part of the results.

The test system of the experiment is HepG2. Description: cytotoxicity call (relative viability < 0.9). The following applies: 10 µM.
On to `O=C(C[C@H]1CC[C@@H]2[C@H](COC[C@H](O)CN2CC2CCOCC2)O1)N1CCOCC1`, for which the cytotoxicity call was “inactive”. As for `CN1C(=O)c2cc(NC(=O)Cc3cccs3)ccc2OC[C@H]2O[C@@H](CC(=O)NCCCN3CCOCC3)CC[C@@H]21`, the entry is “inactive”.

Consider `COC[C@@H]1CN(C(=O)c2cscn2)N1C`, for which the cytotoxicity call is “inactive”. As for `C/C=C/c1ccc2c(c1)O[C@H](CN(C)C(=O)c1ccc3c(c1)OCO3)[C@H](C)CN([C@H](C)CO)S2(=O)=O`, the entry is “inactive”; as for `O=S1(=O)OC(c2ccc(O)cc2)(c2ccc(O)cc2)c2ccccc21`, “inactive”. As for `Cc1noc(C)c1NC(=O)N(C)C[C@@H]1Oc2cc(Br)ccc2S(=O)(=O)N([C@@H](C)CO)C[C@H]1C`, the entry is “inactive”.

With `CCN(CC)C(=O)c1ccc(O)c(OC)c1`, the cytotoxicity call is “inactive”. The same measure for `C[C@@H]1CN([C@H](C)CO)C(=O)c2cccc(NS(=O)(=O)c3cccs3)c2O[C@@H]1CN(C)Cc1ccc(Cl)c(Cl)c1`: “inactive”; for `COc1ccc(S(=O)(=O)N2C[C@@H](O)COC[C@@H]3O[C@H](CC(=O)NCCCN(C)C)CC[C@H]32)cc1`: “inactive”.

For `C[C@H](CO)N1C[C@H](C)[C@@H](CN(C)Cc2ccc(C(F)(F)F)cc2)Oc2ccc(NC(=O)CCC(F)(F)F)cc2C1=O`, the cytotoxicity call is “inactive”. For the compound `CC(=O)OCC(=O)C1(O)CCC2C3CCC4=CC(=O)C=CC4(C)C3(Cl)C(Cl)CC21C` (stereo not drawn), the cytotoxicity call is “inactive”.

With `C[C@H](CO)N1C[C@H](C)[C@H](CN(C)C(=O)Nc2ccc(F)cc2)OCCCC[C@H](C)Oc2ccc(NC(=O)C3CCOCC3)cc2C1=O`, the cytotoxicity call was “inactive”. As for `Cc1noc(C)c1S(=O)(=O)Nc1ccc2c(c1)CC(=O)N([C@@H](C)CO)C[C@@H](C)[C@H](CN(C)S(=O)(=O)c1ccc(Cl)cc1)O2`, the entry is “active”.
